The values that follow come from PMC10726135.

Some of the results follow. At the low end of the ranking the order means little. The protein was read in a cell extract, so binding may be indirect.

In this assay the target is T1, HNF4alpha2 (COS-7 nuclear extract) (UniProt P41235).
T1 sequence: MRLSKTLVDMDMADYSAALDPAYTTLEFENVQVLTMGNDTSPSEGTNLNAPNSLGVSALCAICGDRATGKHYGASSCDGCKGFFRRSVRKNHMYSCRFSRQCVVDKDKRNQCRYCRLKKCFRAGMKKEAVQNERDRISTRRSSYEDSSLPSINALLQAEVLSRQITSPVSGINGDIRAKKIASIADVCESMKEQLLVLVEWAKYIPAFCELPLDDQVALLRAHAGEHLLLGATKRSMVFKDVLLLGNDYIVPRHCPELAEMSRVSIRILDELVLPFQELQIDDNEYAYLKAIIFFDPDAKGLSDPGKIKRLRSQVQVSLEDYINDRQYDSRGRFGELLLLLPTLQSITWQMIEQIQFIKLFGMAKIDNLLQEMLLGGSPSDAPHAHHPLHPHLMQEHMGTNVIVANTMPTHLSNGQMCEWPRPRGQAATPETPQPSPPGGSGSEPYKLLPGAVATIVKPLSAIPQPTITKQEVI
As to the kind of experiment: protein-binding microarray. The settings on record: COS-7 nuclear extract on double-stranded Agilent 4x180k PBM; binding buffer, salt, pH and temperature not given; high values mean tight binding; double strand, one strand shown; sequences stand for … in …GCCTAGGGAGATTAGAGTATCGGTCGA
As to GAGGTCACCCTGTGTCAGCGACTGGGCAGT, the binding signal (log2 normalized intensity) was -1.21.
Turning to GGAGCCCCCTGGGGGAGGTTTCCTGCTGTC, the binding signal (log2 normalized intensity) is -0.946.
As for CCTTTTGTGTAGGAGTACACTCAGCACACC, the binding signal (log2 normalized intensity) stood at 1.16.
Take GCTGCTTTAGACATGAGATAGCATTCCAAG: the binding signal (log2 normalized intensity) is -1.23.
Consider GGGTATAACCTTCTTCTATGCCCTCTTCTG, for which the binding signal (log2 normalized intensity) came to 2.43.
In the case of CAGGGATTATTAATTTACTGAAAAGTCTAC it was -1.15; in that of GGATTATGGAGATGGAGATGGCCTGGAGGT, 1.06.
As for AATTATCCAGATCAAGGATTTTTTCTTGGA, the binding signal (log2 normalized intensity) is -1.12.
The figure for CGACCTGCTGGACGGGAGGAAAACTGGGCA is -1.32.
The figure for TCTTCCTTTCTATCAGCTCTCCGTGGACTT is 3.08; for CTGAGCAGGGTCCAACCCACAGGGGTAGAA it is -0.649.
On to TTTCCTGCCTGCCGGCTCTGAAGAGAACGG, for which the binding signal (log2 normalized intensity) is -1.12.
As for CTAGCTCACTGATAAGAAAGGCTTCTGGGA, the binding signal (log2 normalized intensity) is -1.3.
As to AAAAATATTGAACAAAGATTGCTTGCCAGT, the binding signal (log2 normalized intensity) was determined as 0.996.
ACTGGAAGCAAGCCCTATTAGGCATTTCAT: the binding signal (log2 normalized intensity) is -1.06.
TCAATCCTGGCCTCTGAGGTGTTAACCTGA: the binding signal (log2 normalized intensity) was determined as 0.695.
For ATTATCAGTAACTCACTATCAGGAAACTCT, the binding signal (log2 normalized intensity) is -1.04.
As to CAAGCAAACACACTTGCTCTAATCCTTTAA, the binding signal (log2 normalized intensity) was -1.06.
Consider CTTCCTCATGATCGCTTCCAGGGTTACCGG, for which the binding signal (log2 normalized intensity) is 0.203.
For CAGTGGGGGGGGGGGGGGGGGTGTGTCTGT, the binding signal (log2 normalized intensity) was determined as 1.34.
Consider TTCGGTGTCATCTAGACCTGGACTTGAAGC, for which the binding signal (log2 normalized intensity) was found to be 1.71.
AGGTAATGGTCTCTCCCAGCGGGTCATTAA: the binding signal (log2 normalized intensity) is 0.927.
TATGTGAGTACACACTGTAAAATTTCATGG: the binding signal (log2 normalized intensity) amounted to 0.0982.
In the case of GGGGCGCGGCCTAATGCCTGGGAAAATGTT, the binding signal (log2 normalized intensity) was -1.09.
GGGAGCAGTGGGCATATCTTTTTATCTCTG: the binding signal (log2 normalized intensity) is 0.0411.
Regarding GGAATGCAGCTCAGACTGCTTCTCTGCTGG, the binding signal (log2 normalized intensity) was -1.01.
In the case of AGTTTTGCAACATACTGAAAAAGGGTTGTG, the binding signal (log2 normalized intensity) was found to be 0.751.
The figure for CGTAATCCCAGCTTATGTTTGCAAGTCGAG is 1.55.
In the case of AACCTCAGTGTTTGCTCCTAAGGCCTTCAA, the binding signal (log2 normalized intensity) is -1.08.
Regarding AAGGAGAGGGGGCGGGGAGAGGGAAGAGTC, the binding signal (log2 normalized intensity) is -1.18.
In the case of AGGGGCCCACCTCCACTCTCATAAAAGAGG it was -1.11.
TCTTTGCCCCAGCTCGCTCAGCTGGTTGCC: the binding signal (log2 normalized intensity) is -1.03.
On to TGAGAATCTGACCTTTGGTTAACTTCTTAA, for which the binding signal (log2 normalized intensity) amounted to 4.02.
In the case of TCCACTGTGTTCTTGTTTGCTAAGTGAGAA, the binding signal (log2 normalized intensity) came to 1.16.
For CAGTCTCAGTGGGCTAAACATCAAGACAGG, the binding signal (log2 normalized intensity) is -1.05.
Turning to CCTAATGGGGTACTTGAACCCTACTCATAA, the binding signal (log2 normalized intensity) was determined as 1.56.
Consider AAGCCCCAAATCTAGCATCAGTGAGTCAAG, for which the binding signal (log2 normalized intensity) was found to be 0.607.
In the case of AGAAAGCAAAGTCCCTGGGGACAGGGATTA it was -0.815; in that of CCCAGGTACGGAGGACAGCCACCCGTGCTT, -0.928; in that of CTGCAGATTCCACCTTAGAGGGACGAAGGT, -1.09.
In the case of CCCCATCGCACGGCAGAACTGGTGACCGGA, the binding signal (log2 normalized intensity) came out at 1.66.
Take TGTGGTTATCTGTTGGGGAATCAGTCCATA: the binding signal (log2 normalized intensity) stood at 1.39.
On to TTATCCCAAATGTTTGCACTGAGGAATGGA, for which the binding signal (log2 normalized intensity) is 1.19.
For the sequence GAGTGGACTTTGGCTTATGCAAATGTTATG, the binding signal (log2 normalized intensity) is 4.25.
With AAACGATGTGAGGTCTCTGCATACCAGGTA, the binding signal (log2 normalized intensity) is -1.24.
With CTGCCAGGGAGACAAAGTGTCACAAACTAT, the binding signal (log2 normalized intensity) is -1.23.
In the case of AAGAGCCGGCCGGCGGGGTCACGTGGGGCC, the binding signal (log2 normalized intensity) amounted to 2.81.
AAGAGTCAAAGGGCAAAGGAATAAAATAGC: the binding signal (log2 normalized intensity) was -0.272.
As for GTATCTAATCTCAGATATGCTAATTAACCC, the binding signal (log2 normalized intensity) was determined as 1.79.
With GGACTCATTCTCCCCTGGAGTCTTAAATCC, the binding signal (log2 normalized intensity) is -0.15.
Take TATCAGGTGGTGATGGTGGGAGGGAGGCTT: the binding signal (log2 normalized intensity) is -1.09.
Take AGGAGCCTTCCGGAGGCTCTGCTGAAGAGA: the binding signal (log2 normalized intensity) was -1.19.
For the sequence TCCATTTAGCTTCAGTCTAAATGATGGCCA, the binding signal (log2 normalized intensity) worked out at 1.44.
As to CCAAATCATGGAGGTGTGGGGAGTTCCTTC, the binding signal (log2 normalized intensity) turned out to be 0.0523.
Take GTGCCTCAACCGAGCGTCCAAGCTCTTTCC: the binding signal (log2 normalized intensity) was -1.12.
In the case of TTTAAAAAAATTCCTCCTTGGATTCCTAAG, the binding signal (log2 normalized intensity) is -1.09.
As to AAGGTTTGTTCTTATCATGCTGTCTCTGAA, the binding signal (log2 normalized intensity) came to 0.885.
Regarding GTGTGGCAGAAAACGCAATTGCCCTACAGC, the binding signal (log2 normalized intensity) was -0.277.
The figure for GGAAGTGGCTAGAGGTCGCGAGAGAACTGA is -0.898; for ATTTTCCCATGGTCTGTAGAAGGCGCTGTG it is -1.23.
Take AGCCTCTCACAGTAGCCCAGGTCCTTTGGT: the binding signal (log2 normalized intensity) turned out to be 0.178.
On to ACCCTCAGACACACAGTCCACAGGCTATAG, for which the binding signal (log2 normalized intensity) is -1.11.
GAGGAGACCTTTGGATATCATATCATCTTC: the binding signal (log2 normalized intensity) was 1.32.
TCACTGTGAAGACGTTAGGGGGCAGCAGGG: the binding signal (log2 normalized intensity) is -0.462.
With ATTACCCTATGTCCCCCGACCCGCCCGACT, the binding signal (log2 normalized intensity) turned out to be 5.9.
On to CCAATAGACATAACTCAAACATCTGACAGA, for which the binding signal (log2 normalized intensity) is -1.17.
In the case of AAAAGTAGATTGTTATTTACCCTACATGGC, the binding signal (log2 normalized intensity) was -0.866.
On to AATCATCGCACCTAAGGGCACCCTTCCTGC, for which the binding signal (log2 normalized intensity) was -1.19.
With ACAGCGCCGCCACCCGGTTGGCGCCAATAC, the binding signal (log2 normalized intensity) was -1.16.
Take ACCTGACCCAGGCGAGGGTTGCTGCACCGA: the binding signal (log2 normalized intensity) is -1.21.
Regarding TCAGTTGCAGAAAAACAGGTTCTGCAACAC, the binding signal (log2 normalized intensity) amounted to 0.883.
With GAGACTCTCTCTCCTCTCCAGCCCATCCTA, the binding signal (log2 normalized intensity) came out at 2.36.
Take TACCTAGGAATGCTATCTAGCATGACAAGA: the binding signal (log2 normalized intensity) is -1.03.
